PMC4336329 (PLoS ONE, 2015)
About 2,200 (0.71%) of roughly 310,000 compounds showed an effect of 50% or more. The effect is printed as a negative number. Some of the results follow.

Molecular target: human ether-à-go-go-related gene (hERG) potassium channel (human, UniProt Q12809)
Experiment: primary screen, population patch clamp on CHO cells stably expressing hERG

human ether-à-go-go-related gene (hERG) potassium channel, sequence (Q12809 whole entry, looked up): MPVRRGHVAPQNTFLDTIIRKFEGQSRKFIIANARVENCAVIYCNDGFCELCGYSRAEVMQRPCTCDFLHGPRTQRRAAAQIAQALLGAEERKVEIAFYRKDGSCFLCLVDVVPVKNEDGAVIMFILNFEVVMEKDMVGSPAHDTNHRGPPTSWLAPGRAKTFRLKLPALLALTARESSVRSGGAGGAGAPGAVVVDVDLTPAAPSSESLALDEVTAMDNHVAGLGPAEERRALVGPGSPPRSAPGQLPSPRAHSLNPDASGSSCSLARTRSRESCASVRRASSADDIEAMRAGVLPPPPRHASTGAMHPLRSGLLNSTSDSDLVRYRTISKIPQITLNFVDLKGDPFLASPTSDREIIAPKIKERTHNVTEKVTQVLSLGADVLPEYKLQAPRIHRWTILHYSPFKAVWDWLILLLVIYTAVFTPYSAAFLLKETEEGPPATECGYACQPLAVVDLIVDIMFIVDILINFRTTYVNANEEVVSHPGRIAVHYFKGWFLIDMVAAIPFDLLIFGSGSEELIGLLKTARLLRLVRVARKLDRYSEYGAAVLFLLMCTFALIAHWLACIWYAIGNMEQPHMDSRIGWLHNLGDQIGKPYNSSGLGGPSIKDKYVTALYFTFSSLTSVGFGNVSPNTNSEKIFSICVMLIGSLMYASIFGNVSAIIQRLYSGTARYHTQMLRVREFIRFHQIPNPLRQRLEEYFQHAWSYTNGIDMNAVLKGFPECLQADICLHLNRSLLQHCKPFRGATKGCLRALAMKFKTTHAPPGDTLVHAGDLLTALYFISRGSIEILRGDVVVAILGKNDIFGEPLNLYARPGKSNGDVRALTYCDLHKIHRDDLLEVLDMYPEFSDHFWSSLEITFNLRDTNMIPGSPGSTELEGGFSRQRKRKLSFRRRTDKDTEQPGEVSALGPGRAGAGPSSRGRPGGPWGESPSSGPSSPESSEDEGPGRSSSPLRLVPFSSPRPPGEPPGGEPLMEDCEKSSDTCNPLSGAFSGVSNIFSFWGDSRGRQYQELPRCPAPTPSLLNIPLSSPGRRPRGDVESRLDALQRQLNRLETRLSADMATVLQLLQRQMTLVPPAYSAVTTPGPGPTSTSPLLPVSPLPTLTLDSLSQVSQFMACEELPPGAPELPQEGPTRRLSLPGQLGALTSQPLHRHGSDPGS

| Compound | hERG current change (%, negative = inhibition) at 1uM [%] |
| --- | --- |
| COc1cccc(COc2ccc(N(C)S(=O)(=O)c3ccccc3)cc2)c1 | 7.66 |
| COc1ccc(S(=O)(=O)N(C)CC(=O)Nc2c(F)cccc2F)cc1 | 13.1 |
| O=[N+]([O-])c1cc2c(cc1/C=N/n1c(-c3ccccc3)n[nH]c1=S)OCO2 | 7.43 |
| CCOC(=O)C1=C(N)Oc2cc(C)oc(=O)c2C12C(=O)N1c3c(cccc32)C(C)CC1(C)C (stereo not drawn) | -1.59 |
| COc1ccc(/C=C2/N=C(SC)NC2=O)cc1OC | 6.89 |
| Cc1ccccc1NC1=C(Cl)C(=O)OC1OC(C)C (stereo not drawn) | 16.5 |
| c1ccc(-c2nnc(SCCC3OCCCO3)o2)cc1 | 16.4 |
| CC(Nc1nc(-c2ccccc2)nc2ccccc12)c1ccccc1 (stereo not drawn) | 4.22 |
| COc1ccc(CCNc2nc(-c3ccc(NC(C)=O)cc3)cs2)cc1OC | 10.6 |
| CN(C(=O)CSc1nnc(-c2cccs2)o1)C1CCS(=O)(=O)C1 (stereo not drawn) | 10.3 |
| O=C(NCCCC1CCCC1)C1CCC(=O)N(Cc2ccc(Cl)cc2)C1 (stereo not drawn) | -4.04 |
| CCc1ccccc1NC(=O)Cn1nc(C)n2cccc2c1=O | 10.4 |
| COC(=O)c1c(C)[nH]c(C(=O)COC(=O)Cc2ccc3c(c2)OCCO3)c1C | -6.84 |
| CC(C)(C)C1CCC(OC(=O)c2ccncc2)CC1 (stereo not drawn) | -7.2 |
| Clc1ccc(OCc2nc3ccccc3[nH]2)cc1 | 14 |
| COc1cccc(NC(=O)CN2C(=O)C3(OCCCO3)c3ccccc32)c1 | 4.62 |
| Cc1ccc(NC(=O)C2CCCN(S(=O)(=O)c3cnc[nH]3)C2)cc1C (stereo not drawn) | 4.39 |
| CCn1c(O)c(N=NC(=O)CNC(=O)Cc2ccccc2)c2ccccc21 | 14.8 |
| CC(C)(C)C(=O)NCCc1nc2ccccc2n1CC(=O)c1ccccc1 | 10.1 |
| CC(=O)c1c(O)cc(C)n(-c2ccc(F)cc2)c1=O | 5.99 |
| COCCNC(=O)CSc1ccc(C)cc1 | 6.9 |
| O=C(N/N=C/c1ccc(-c2cccc([N+](=O)[O-])c2)o1)c1cccs1 | 22.4 |
| Fc1ccccc1CN1CCN(c2ccc(Cl)cc2)CC1 | 15.8 |

| Compound | hERG current change (%, negative = inhibition) at 1uM [%] |
| --- | --- |
| COc1ccc(COC(=O)c2nc3nc(C)cc(C)n3n2)cc1F | 3.88 |
| CCc1ccc(NC(=O)CSc2nc3ccsc3c(=O)n2CCCCCC(=O)O)cc1 | 10.1 |
| O=C(O)c1ccc2c(=O)n3c(nc2c1)/C(=C/c1ccc(OC(F)F)cc1OC(F)F)CC3 | 17.9 |
| Cc1cccc(C(=O)N[C@H](C(=O)Nc2nc3ccccc3[nH]2)C(C)C)c1 | 7.53 |
| O=C(Cc1ccc(Cl)cc1Cl)OCC(=O)N1CCCCC1 | 12.3 |
| CCC(Nc1nc(-c2ccccc2)nc2ccccc12)C(=O)O.Cl (stereo not drawn) | 6.68 |
| CCOC(=O)C(C)Oc1cccc2c(=O)n(CC(=O)NCc3ccco3)ccc12 (stereo not drawn) | 6.61 |
| CCCCC(=O)N/N=C/c1ccc(-c2ccc([N+](=O)[O-])cc2)o1 | 1.18 |
| COc1cc(Cl)c(S(=O)(=O)NCc2cccnc2)cc1Cl | 9.21 |
| CCOC(=O)C1=C(C)NC(=S)N(C(C)=O)C1c1ccccc1 (stereo not drawn) | 6.9 |
| Cc1ccc2c(c1C)OC(=O)CC2c1ccccc1 (stereo not drawn) | 7.89 |
| CCc1cc(-c2n[nH]c(=S)n2N)n(C)n1 | -6.77 |
| CCN(CC)CCn1c(=S)[nH]c2cc(C(=O)NCc3ccccc3Cl)ccc2c1=O | -42.5 |
| CC1=CN2C(=N)/C(=C/c3ccco3)C(=O)N=C2S1 | 15.8 |
| Cc1cccc(N2CCN(c3nnc(C(F)(F)F)s3)CC2)c1 | 17.4 |
| Nc1cnnc(N/N=C\c2ccccc2)c1Cl | 11.6 |
| CCOCCCNCC(=O)N1CCN(S(=O)(=O)c2ccc(C)cc2)CC1.O=C(O)C(=O)O | -0.248 |
| O=C(c1ccc(COc2ccccc2Br)o1)N1CCCCCC1 | -4.24 |
| C/C(=N\NC(=O)c1nnn(-c2nonc2N)c1C)c1ccc(-c2ccccc2)cc1 | 14.5 |
| O=C(Nc1ccccc1Cl)c1cnccn1 | 7.92 |
| O=C(Cc1ccc([N+](=O)[O-])cc1)Nc1nccs1 | 9.57 |
| Cc1c(CCC(=O)N2CCC(C(=O)O)(c3ccccc3)CC2)c(=O)oc2cc3oc4c(c3cc12)CCCC4 | 11.3 |
| O=C(O)CC1S/C(=N/N=C/C=C/c2ccccc2)NC1=O (stereo not drawn) | 5.99 |

| Compound | hERG current change (%, negative = inhibition) at 1uM [%] |
| --- | --- |
| Cc1cc(C(=O)c2ccc(Cl)cc2)c(NC(=O)CCl)s1 | -0.352 |
| CCN(CCO)C(=O)CC1C(=O)NCCN1Cc1c(F)cccc1Cl (stereo not drawn) | 20.9 |
| CC(C)(C)c1ccc(-n2ncc3c2CCCC3NC(=O)CN2CCOC2=O)cc1 (stereo not drawn) | 8.05 |
| CCCn1nnnc1NCc1ccccc1OCc1ccc(F)cc1 | 3.81 |
| O=C([O-])c1cc(=O)[nH]c2ccc(S(=O)(=O)Nc3ccc(F)cc3)cc12.[K+] | 17 |
| CC(=O)Nc1ccc(N/C=C(\C=O)c2nc3ccccc3o2)cc1 | 17.8 |
| CSCc1cc(N2CCOCC2)nc(SCc2ccc(Cl)cc2Cl)n1 | 4.35 |
| COC(=O)c1ccccc1OCCCCN1CC(C)OC(C)C1.O=C(O)C(=O)O (stereo not drawn) | 5.46 |
| CC(C)Cc1nn2c(N)c(/C=C3\C=Nc4ccccc43)c(=O)nc2s1 | 12.7 |
| CCCCNC(=O)c1cccc2c(=O)c(C)c(-c3ccccc3)oc12 | -1.37 |
| CC(C(=O)Nc1cccc([N+](=O)[O-])c1)N1CCN(C/C=C/c2ccccc2)CC1 (stereo not drawn) | -74.2 |
| COc1ccccc1-c1oc2ccccc2c1-c1ccc2c(c1)OCO2 | 14.2 |
| Cc1ccc(NC(=O)Nc2cc(S(=O)(=O)N(C)C)ccc2C)cc1 | 8.45 |
| COc1ccc2c(COC(=O)CCS(=O)(=O)c3ccc(C)cc3)cc(=O)oc2c1 | 2.59 |
| O=C(/C=C/c1cccc(Br)c1)N1CCN(c2ccccn2)CC1 | 8.4 |
| Cc1nc(C)c(-c2csc(N)n2)s1 | 4.33 |
| O=C(CN1CCN(C(=O)CNC(=O)c2ccc(N3CCCC3=O)cc2)CC1)Nc1ccccc1Cl | 12.4 |
| COc1ccc(-c2nc3c(-c4ccc(F)cc4)cnn3cc2C)cc1F | 6.61 |
| O=C(O)CSc1nccn1-c1cccc(Cl)c1 | 7.78 |
| CCC(=O)N1CCCN(S(=O)(=O)c2ccc(C)cc2)C1c1ccc(OC)cc1 (stereo not drawn) | 0.143 |
| O=C(Nc1ccccc1)/C(=C\c1ccc(F)cc1)NC(=O)c1ccco1 | 10.2 |
| O=C(OCc1ccccn1)c1ccc(COc2ccccc2Cl)o1 | 13.6 |
| CC(C)NC(=O)COC(=O)/C=C/c1ccc(F)cc1 | 0.898 |

| Compound | hERG current change (%, negative = inhibition) at 1uM [%] |
| --- | --- |
| COc1ccccc1NC(=O)CSc1nnc(Cn2nnc(-c3ccccc3)n2)n1-c1ccccc1 | 5.19 |
| Cn1c(SCC(=O)Nc2ccccc2Oc2ccccc2)nnc1C1CC1 | 3.28 |
| Cc1nnsc1C(=O)N1CCCC(C(=O)c2ccc(C(F)(F)F)cc2)C1 (stereo not drawn) | 3.88 |
| O=C(COc1ccc(Cl)cc1Cl)NCCSc1ccc(Cl)cc1 | 9.14 |
| CCCN(CCC)CCOc1cc(C)ccc1C(C)C.O=C(O)C(=O)O | 5.42 |
| O=C(CSc1nnc(-c2ccccn2)n1Cc1ccccc1)NC1CCCC1 | 13.7 |
| CCOC(=O)c1c(C)[nH]c(C(=O)OCC(=O)Nc2ccc(Cl)cn2)c1C | 11 |
| CC(C)(C)c1ccc(C(=O)Nc2ccc(NC(=O)C(=O)O)cc2)o1 | 8.09 |
| CCCCC(CC)CNC(=O)C1CC=CCC1C(=O)O (stereo not drawn) | 15.9 |
| COc1ccc(C(=O)N2CCCC(Nc3ccc(C)c(C)c3)C2)cc1F (stereo not drawn) | 10.6 |
| Cc1ccc(C2c3c(oc4ccccc4c3=O)C(=O)N2c2nncs2)cc1 (stereo not drawn) | 9.76 |
| COc1ccc(NS(=O)(=O)c2cc(NC(=O)C3CCCO3)ccc2N2CCCC2)cc1 (stereo not drawn) | 32.8 |
| COc1ccccc1N1CCN(C(=O)c2cc(C)oc2C)CC1 | 12.7 |
| COc1ccc(OC)c(N2C(=O)CC(=O)NC2=O)c1 | 14.8 |
| CN(C)S(=O)(=O)c1ccc(C(=O)N2CCN=C2SCc2cccnc2)cc1 | 9.96 |
| CN(CC(=O)NCc1ccccc1F)S(=O)(=O)c1ccc(Cl)cc1 | 7.71 |
| CC(=O)N1CCc2c(sc3c2c(=O)n(Cc2ccccc2)c(=O)n3CC(=O)NCC2CCCO2)C1 (stereo not drawn) | 3.5 |
| COc1cc(/C=N/N=C2/NC(=O)C(c3ccccc3)S2)ccc1O (stereo not drawn) | 11.8 |
| COc1ccc(CCC(=O)OCC(=O)c2cccc(OC)c2)cc1 | 1.8 |
| CCn1cnc2c1c(=O)n(CC(=O)O)c(=O)n2Cc1ccccc1 | 17.9 |
| CC1=C(C(=O)Nc2ccccc2C)C(c2ccc(C)o2)N2C(=O)CSC2=N1 (stereo not drawn) | -10.9 |
